PubChem BioAssay (Tox21)
“And” between values parts separate entries of the source, which are not always exact repeats. Equal entries are not always repeated. The inconclusive results got no clear call from the source; some entries with a clear call stand among them for comparison. Potencies beside an inconclusive call are fits to weak or partial responses and may not hold up. The source made the active and inactive calls. Calls come from the whole dose curve; as a rule, active = well fitted curve in the direction sought with a large enough effect in the repeat runs; inconclusive = weak or mixed curves; inactive = no such curve, though single readings can be large; an effect the other way counts as inactive or inconclusive.

Test system: not listed separately
Test: Human pregnane X receptor (PXR) small molecule agonists, qHTS cell viability counter screen (AID 1346977); note: nearly all actives have a fitted effect of over 50% in size
Conditions: PXR-Luc HepG2 viability, CellTiter-Fluor, 24 h; series mostly up to 92.4 µM
How it was run: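 After a 5hr pre-incubation, PXR-Luc HepG2 cells received compounds plus positive control in DMSO and were kept 24hr at 37C. Cell viability was quantified by fluorescence from CellTiter-Fluor added for the final hour.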
Potency is the fitted concentration of half-maximal effect; tags give direction and shape of the fitted curve.

| Structure (SMILES) | Potency |
| --- | --- |
| CCCOC(C)=O | inactive |
| O=c1[nH]nc(-c2ccc([N+](=O)[O-])o2)o1 | inconclusive: 68.6 µM [cytotoxic, single point] |
| COc1cccc([C@H](O)C2CCN(CCc3ccc(F)cc3)CC2)c1OC | inconclusive: 43.3 µM [cytotoxic, partial curve] |
| CN1C[C@H]2c3ccccc3Oc3ccc(Cl)cc3[C@@H]2C1 | inconclusive: 29.8 µM [cytotoxic] |
| CC(C)[N+](C)(C)CC(O)COc1cccc2ccccc12 (configuration not stated) | inactive |
| CN(C)c1ccc(C=O)cc1 | inactive |
| O=C(Cl)c1cc(C(=O)Cl)cc(C(=O)Cl)c1 | inconclusive: 68.6 µM [rising, partial curve, poor fit] |
| OC(CCl)CCl | inactive |
| CCCCC(CC)CN1C(=O)C2C3C=CC(C3)C2C1=O (configuration not stated) | inactive |
| Nc1nnc(-c2ccc([N+](=O)[O-])o2)o1 | active: 27.3 µM |
| CC(C)(C)OCC1CO1 (configuration not stated) | inactive |
| CC(C)=CCC/C(C)=C/COC=O | inactive |
| CN(C)CCN(Cc1ccccc1)c1ccccn1 | inconclusive: 23.7 µM [cytotoxic, partial curve] |
| C=C(C)C(=O)OCCC[Si](Cl)(Cl)Cl | inactive |
| CC(O)C#CC(C)O (configuration not stated) | inconclusive: 60.5 µM [cytotoxic, single point] |
| CC(C)C(O)C(C)(C)CO (configuration not stated) | inactive |
| CC(=O)CC(=O)Nc1ccccc1C | inactive |

Test system: not listed separately
Test: Caspase-3/7 induction in HepG2 cells by small molecules, qHTS assay (AID 1346978); note: nearly all actives have a fitted effect of over 15% in size
Conditions: HepG2 caspase-3/7 activation, Caspase-Glo luminescence, 17 h; series mostly up to 92.4 µM
How it was run: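 Wild-type HepG2 cells, 2,000/well, settled 5 hr at 37 C and 5% CO2, then compound-treated for 17 hr; caspase-3/7 activity read by luminescent Caspase-Glo 3/7 after 30 min at room temperature.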

| Structure (SMILES) | Potency |
| --- | --- |
| CCCCCCCCCCCCCC[N+](C)(C)C | inconclusive: 76.9 µM [activator, single point] |
| CCc1ccc(O)c(C(C)(C)C)c1 | inconclusive: 68.6 µM [activator, single point] |
| CCCCN(CCCC)CC(O)c1cc(Cl)cc2c1-c1ccc(Cl)cc1/C2=C/c1ccc(Cl)cc1 (configuration not stated) | inconclusive: 33.5 µM [activator, single point] |
| C[C@@H]1CC[C@H]2C(C)(C)[C@H]3C[C@@]12CC[C@@]3(C)O | inconclusive: 68.5 µM [activator, partial curve, poor fit] |
| Fc1ccc(C(c2ccc(F)cc2)N2CCNCC2)cc1 | inactive |
| CCCCC/C(=C\c1ccccc1)CO | inconclusive: 76 µM [activator, single point] |

Test system: not listed separately
Test: Caspase-3/7 induction in CHO-K1 cells by small molecules, qHTS cell viability counter screen (AID 1346979); note: nearly all actives have a fitted effect of over 35% in size
Conditions: CellTiter-Fluor fluorescence, 17 h; series mostly up to 92.4 µM
How it was run: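 Multiplexed with Caspase-Glo 3/7 in CHO-K1 cells, this counter screen added CellTiter-Fluor after 16hr of compound exposure and recorded fluorescence 1hr later.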

| Structure (SMILES) | Potency |
| --- | --- |
| CCCCCCCCCCCCCC[N+](C)(C)C | inconclusive: 33.5 µM [cytotoxic, single point] |
| CCc1ccc(O)c(C(C)(C)C)c1 | inconclusive: 61.1 µM [cytotoxic, single point] |
| C[C@@H]1CC[C@H]2C(C)(C)[C@H]3C[C@@]12CC[C@@]3(C)O | inconclusive: 68.5 µM [cytotoxic, single point] |
| Fc1ccc(C(c2ccc(F)cc2)N2CCNCC2)cc1 | inactive |
| CCCCC/C(=C\c1ccccc1)CO | inconclusive: 85.3 µM [cytotoxic, partial curve, poor fit] |

Target: Cytochrome P450 2D6 (Homo sapiens) (UniProt P10635)
Chain of UniProt P10635 (P10635 whole entry, looked up): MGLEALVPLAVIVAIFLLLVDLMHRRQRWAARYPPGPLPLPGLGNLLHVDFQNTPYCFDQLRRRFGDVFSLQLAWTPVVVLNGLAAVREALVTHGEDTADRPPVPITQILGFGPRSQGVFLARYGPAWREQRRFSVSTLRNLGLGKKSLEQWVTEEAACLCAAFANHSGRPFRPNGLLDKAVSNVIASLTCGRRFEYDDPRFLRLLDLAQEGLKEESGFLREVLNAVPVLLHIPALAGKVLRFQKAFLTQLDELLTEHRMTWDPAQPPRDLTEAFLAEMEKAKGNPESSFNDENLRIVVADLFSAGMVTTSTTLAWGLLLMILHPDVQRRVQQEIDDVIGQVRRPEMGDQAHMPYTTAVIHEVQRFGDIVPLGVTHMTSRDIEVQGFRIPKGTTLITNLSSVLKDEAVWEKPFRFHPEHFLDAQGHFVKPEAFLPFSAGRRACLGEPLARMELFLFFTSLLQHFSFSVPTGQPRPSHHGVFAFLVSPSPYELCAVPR
Test: Cytochrome P450 Family 2 Subfamily D Member 6 (CYP2D6) small molecule antagonists: luciferase reporter qHTS assay (AID 1671196); note: nearly all actives have a fitted effect of over 50% in size
Conditions: P450-Glo CYP2D6 enzyme assay, luciferin luminescence, 1 h; series mostly up to 115 µM
How it was run: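 Read-out is luminescence from luciferin formed by CYP2D6 turnover of a proluciferin substrate, recorded as relative luminescence units. Reactions ran 1 h at room temperature after NADPH regeneration solution was added.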

| Structure (SMILES) | Potency |
| --- | --- |
| C[C@@H](C1=C(CCN(C)C)Cc2ccccc21)c1ccccn1 | active: 11 µM |
| OC1(c2ccccc2)CCNCC1 | inconclusive: 15.5 µM [inhibitor, partial curve] |
| CCc1ccc(O)c(C(C)(C)C)c1 | inactive |
| Cc1nc2ccccn2c(=O)c1CCN1CCC(C(=O)c2ccc(F)cc2)CC1 | active: 4.36 µM |
| Nc1cccc2c(=O)[nH][nH]c(=O)c12 | active: 5.05 µM |
| O=C(Oc1ccccc1)c1ccccc1O | inconclusive: 43.6 µM [inhibitor, partial curve, poor fit] |
| O=C1Nc2ccc(Cl)cc2[C@@](C#CC2CC2)(C(F)(F)F)O1 | inactive |
| C[C@@H]1CC[C@H]2C(C)(C)[C@H]3C[C@@]12CC[C@@]3(C)O | inconclusive: 63.2 µM [inhibitor, partial curve] |
| O=c1[nH]nc(-c2ccc([N+](=O)[O-])o2)o1 | inconclusive: 39.9 µM [inhibitor, partial curve] |
| O=C(Cl)c1cc(C(=O)Cl)cc(C(=O)Cl)c1 | inconclusive: 39.9 µM [inhibitor, partial curve] |
| CCCCC(CC)CN1C(=O)C2C3C=CC(C3)C2C1=O (configuration not stated) | active: 31.7 µM |
| CC(C)=CCC/C(C)=C/COC=O | inactive |
| CCCCC/C(=C\c1ccccc1)CO | inconclusive: 78.7 µM [inhibitor, partial curve, poor fit] |
| C=C(C)C(=O)OCCC[Si](Cl)(Cl)Cl | inconclusive: 20.2 µM [inhibitor] |
| CC(O)C#CC(C)O (configuration not stated) | active: 35.2 µM |
| CC(C)C(O)C(C)(C)CO (configuration not stated) | active: 32.7 µM |

Target: Cytochrome P450 2C19 (Homo sapiens) (UniProt P33261)
Chain of UniProt P33261 (P33261 whole entry, looked up): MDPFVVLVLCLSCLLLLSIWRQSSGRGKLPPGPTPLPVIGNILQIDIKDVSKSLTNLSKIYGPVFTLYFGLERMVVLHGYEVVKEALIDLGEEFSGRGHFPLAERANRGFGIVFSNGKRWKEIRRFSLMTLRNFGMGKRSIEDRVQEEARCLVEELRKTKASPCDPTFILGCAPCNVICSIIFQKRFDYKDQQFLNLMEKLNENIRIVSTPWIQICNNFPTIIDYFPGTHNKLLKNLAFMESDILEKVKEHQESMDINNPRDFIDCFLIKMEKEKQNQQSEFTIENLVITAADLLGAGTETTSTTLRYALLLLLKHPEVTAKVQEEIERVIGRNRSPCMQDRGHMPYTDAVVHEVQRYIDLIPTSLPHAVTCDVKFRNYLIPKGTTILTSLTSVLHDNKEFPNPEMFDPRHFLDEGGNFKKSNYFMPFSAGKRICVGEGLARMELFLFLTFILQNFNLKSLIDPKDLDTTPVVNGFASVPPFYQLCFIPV
Test: Cytochrome P450 Family 2 Subfamily C Member 19 (CYP2C19) small molecule antagonists: luciferase reporter qHTS assay (AID 1671197); note: nearly all actives have a fitted effect of over 65% in size
Conditions: P450-Glo CYP2C19 enzyme, luciferin luminescence, 1 h; series mostly up to 115 µM
How it was run: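 First, compounds are pinned into enzyme-substrate mix and held 10 min at room temperature. Second, NADPH regeneration solution is added and plates incubate 1 h at 37C. Third, detection reagent is added and luminescence read after 20 min.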

| Structure (SMILES) | Potency |
| --- | --- |
| OC1(c2ccccc2)CCNCC1 | inconclusive: 8.71 µM [inhibitor, partial curve, poor fit] |
| CCCCCCCCCCCCCC[N+](C)(C)C | inconclusive: 61.1 µM [inhibitor, single point] and inconclusive: 9.77 µM [inhibitor, partial curve, poor fit] |
| Cc1ccc2ccccc2n1 | inactive |
| CC(=O)OCC(=O)[C@@]1(O)[C@H](OC(C)=O)C[C@H]2[C@@H]3CCC4=CC(=O)C=C[C@]4(C)[C@@]3(F)[C@@H](O)C[C@@]21C | inactive |
| COC(=O)[C@@H](N)Cc1ccc(O)c(O)c1 | inactive |
| O=C(Oc1ccccc1)c1ccccc1O | inconclusive: 89.8 µM [inhibitor, single point] |
| C[C@@H]1CC[C@H]2C(C)(C)[C@H]3C[C@@]12CC[C@@]3(C)O | inconclusive: 89.3 µM [inhibitor, single point] |
| COc1cccc([C@H](O)C2CCN(CCc3ccc(F)cc3)CC2)c1OC | inconclusive: 89.4 µM [inhibitor, single point] |
| CC(C)[N+](C)(C)CC(O)COc1cccc2ccccc12 (configuration not stated) | inactive |
| OC(CCl)CCl | inactive |
| Nc1nnc(-c2ccc([N+](=O)[O-])o2)o1 | inconclusive: 79.6 µM [inhibitor, single point] |
| CN(C)CCN(Cc1ccccc1)c1ccccn1 | inconclusive: 43.6 µM [inhibitor, single point] |
| CC(O)C#CC(C)O (configuration not stated) | inconclusive: 78.9 µM [inhibitor, single point] |
